Assay results taken from patent publication US20140348837A1 (published 2014).

What was measured:
Experiment in all cases: SPR (Biacore)
[1] = target: BC 247-C3 x CD3
[2] = target: BC 244-C6 x CD3
[3] = target: BCMA-107 x CD3

- Kd [1]: 0.6 nM
- Kd [2]: 0.6 nM
- Kd [3]: 11.7 nM
B1: Macaque BCMA (receptor)
chain (part 1 of 2): [… about 60 residues …]NASGGGGSEAHKSEIAHRYNDLGEQHFKGLVLIAFSQYLQKCSYDEHAKLVQEVTDFAKTCVADESAANCDKSLHTLFGDKLCAIPNLRENYGELADCCTKQEPERNECFLQHKDDNPSLPPFERPEAEAMCTSFKENPTTFMGHYLHEVARRHPYFYAPELLYYAEQYNEILTQCCAEADKESCLTPKLDGVKEKALVSSVRQRMKCSSMQKFGERAFKAWAVARLSQTFPNADFAEITKLATDLTKVNKECCHGDLLECADDRAELAKYMCENQATISSKLQTCCDKPLLKKAHCLSEVEHDTMPADLPAIAADFVEDQEVCKNYAEAKDVFLGTFLYEYSRRHPDYSVSLLLRLAKKYEATLEKCCAEANPPACYGTVLAEFQPLVEEPKNLVKTNCDLYEKLGEYGFQNAILVRYTQKAPQVSTPTLVEAARNLGRVGTKCCTLPEDQRLPCVEDYLSAILNRVCLLHEKTPVSEHVTKCCSGSLVERRPCFSALTVDETYVPKEFKAETFTFHSDICTLPEKEKQIKKQTALAELVKHKPKATAEQLKTVMDDFAQFLDTCCKAADKDTCFSTEGPNLVTRCKDALA
chain (part 2 of 2): SGHHGGHHGGHH
